Laboratory results taken from the supplement of paper PMC3334620.
Over roughly 33,000 sequences, “E-score (-0.5 to 0.5)” has its median near -0.032; the highest 2% begin near 0.36. The list shows a part of the results.

Each sequence was assayed against T1, Sko1 (UniProt Q02100) (assay: PBM E-score (8-mer binding enrichment) (E-score (-0.5 to 0.5)); higher = stronger / more preferred TF binding; most listed sequences are background and not binding sites). Details: protein concentration: 200 nM; construct: GST-full length.
T1 sequence: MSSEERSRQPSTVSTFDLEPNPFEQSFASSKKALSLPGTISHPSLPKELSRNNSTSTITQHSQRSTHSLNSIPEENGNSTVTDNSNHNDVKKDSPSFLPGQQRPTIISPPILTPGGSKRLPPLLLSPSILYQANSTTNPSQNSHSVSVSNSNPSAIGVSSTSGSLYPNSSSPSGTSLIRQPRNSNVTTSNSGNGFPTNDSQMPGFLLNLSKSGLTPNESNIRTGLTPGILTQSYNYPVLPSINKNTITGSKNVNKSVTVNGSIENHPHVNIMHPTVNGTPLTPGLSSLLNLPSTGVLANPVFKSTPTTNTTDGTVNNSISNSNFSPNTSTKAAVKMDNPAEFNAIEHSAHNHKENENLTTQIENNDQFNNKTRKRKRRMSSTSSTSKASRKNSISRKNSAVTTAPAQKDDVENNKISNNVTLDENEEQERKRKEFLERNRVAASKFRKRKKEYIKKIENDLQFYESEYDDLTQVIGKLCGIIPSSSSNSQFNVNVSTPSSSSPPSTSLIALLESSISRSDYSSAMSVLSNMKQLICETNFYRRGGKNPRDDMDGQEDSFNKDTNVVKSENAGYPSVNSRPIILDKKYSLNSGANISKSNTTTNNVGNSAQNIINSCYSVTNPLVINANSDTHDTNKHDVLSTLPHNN
Description: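 Universal 'all 10-mer' protein binding microarrays (Agilent AMADID 015681) probed with GST-tagged S. cerevisiae TFs (full-length or DBD) made by in vitro transcription/translation (PURExpress), about 100-200 nM. Bound TF was detected with fluorescent anti-GST. Each ungapped 8-mer (which stands for itself and its reverse complement) is scored by the PBM enrichment score (E-score), a modified Wilcoxon-Mann-Whitney statistic from -0.5 to +0.5, computed with the Universal PBM Analysis Suite. Scale: above 0.35 generally sequence-specific binding.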

Sequence | PBM E-score
ATCTGTCC | -0.319
CGGCTTAC | -0.0277
AAGGAAAT | 0.0765
CGCAGCAG | -0.122
GTGCCGAA | 0.0597
AGGCAGGA | -0.184
CGAGAGTC | -0.189
AGTTGTAC | -0.116
AAGAACAG | 0.0348
CCATGGAG | -0.266
CAAAGAAG | -0.00535
GACAGCAC | -0.0572
AGCGGGTC | -0.376
GACAGAAA | 0.135
GCACATTA | 0.111
AACTCGCA | 0.053
AGGAGGGG | -0.109
AAATTGAA | 0.192
CTCACGAA | 0.138
AAGAGAAC | 0.0447
ATATGGGA | -0.158
CCTAGCCA | -0.108
GATACTCC | -0.0688
AGCGAATC | 0.0742
CAGTATAA | -0.00767

Sequence | PBM E-score
AAACAGTC | -0.134
GCCTAGAC | -0.174
CGAGTCGA | -0.122
TCGTTTCA | 0.0611
ACATTGCC | -0.177
CGGGAGAG | -0.313
CTTGACGA | 0.17
GATACCAA | 0.0663
CATCGCGC | 0.048
CTCGCAAC | -0.00447
GCCTACGC | 0.123
AATAATAG | 0.111
ACGTGGTA | 0.391
CAAAAAAG | 0.19
AAAGTATG | 0.0567
CCCACGCA | 0.109
ATTAATCC | 0.0871
TCTGCTAA | -0.0687
AGTTAATG | 0.301
ACGTGGTC | 0.364
CTTGCTAC | -0.045
ACTGGATA | 0.0924
AACCCCGT | -0.155
ACACTTAA | 0.184
ATGTAGGG | -0.129

Sequence | PBM E-score
AGGAACCC | -0.32
ACCGCACT | -0.0608
CCTATTTA | -0.0505
CAACAGGA | -0.134
AATAACAG | 0.133
AGTCGAAG | -0.149
ATACCCGC | -0.0101
CTACGGGA | -0.117
ACCTCGCT | -0.14
CTTAAGGA | -0.212
ATGCTCTC | -0.291
ACGTGGCG | 0.368
GTTCGAAC | 0.0349
AGGTGCGG | -0.218
TATATAGA | 0.229
ATCGAAAG | 0.0369
GGTGCACA | -0.0357
AAACATTT | 0.0986
AAGACAGA | 0.0638
CGTTAGAC | 0.122
ATTCGCAC | 0.046
AGGCCGCG | -0.197
CAAACTCG | -0.104
AGTATGAG | 0.129
ACCGGAAT | -0.209

Sequence | PBM E-score
GAACGGAA | -0.17
CAAATGAG | 0.0267
GATAGAGA | -0.084
CGGATGCC | -0.0959
AATATTGG | -0.0283
AAAACGAA | 0.157
AGCCCGTC | -0.06
AATGGTTG | -0.00536
ACAGACGT | 0.301
GCCACCCC | -0.268
CACATATA | 0.188
CATTGATA | 0.00658
TGAAGTCA | 0.0809
GCCTATTA | 0.0771
CACGACAG | -0.0151
CCCTGGAC | -0.188
CATGAACA | 0.0599
AATTCTCC | -0.127
ACCACTAA | 0.237
AAGGTGGT | -0.106
ACGACAAT | 0.208
ATTAGAGA | 0.126
CGAACAAG | -0.0925
CCAGTCAG | -0.25
GCATGATA | 0.0908

Sequence | PBM E-score
AGTGTGTC | 0.104
ACACCCGT | -0.176
GTCCGAAA | 0.114
GGGCTATA | -0.237
CGCAAGGA | 0.0747
CGCGGAGC | -0.201
CATAGTGC | 0.111
GGTTTGAA | 0.00149
AAGTTAGC | 0.027
ATATTCCG | -0.0674
TGTGCACA | 0.0883
GCAGACGA | -0.0891
CCGTTAGA | 0.00854
CAACGTAG | 0.354
ATACGACG | 0.234
CGCTCTTA | 0.112
CTGACCCA | -0.172
GCGGCACC | -0.221
GCTGCGAC | -0.0513
GCAAGTTA | -0.00746
CCCGTTGC | -0.174
AACTGTTC | -0.179
ACGCGCAG | 0.154
GAAATCGC | -0.057
CCCCCTAG | -0.346

Sequence | PBM E-score
GATACCCC | -0.186
ACTCATCT | 0.0336
CAATTCGG | -0.0702
CTGGAGAA | -0.324
AATCCAGC | -0.0959
CCACACTA | 0.0555
CCTATGTC | -0.0206
AGCCCCAA | -0.23
CTGAATAC | 0.15
TCATGCAA | 0.08
AAGTCGAT | -0.128
CAGAAAAG | 0.0471
AAATCTCC | -0.23
CAGATAGG | -0.101
AGCGATAC | 0.0619
AACTCACT | -0.148
CGGCTAGC | -0.23
TCCCCGCA | -0.0758
AGTCTTGG | 0.0188
CATTGGCA | -0.0861
GGCCAAAC | -0.119
AAGAACAT | 0.13
CAAAGTTG | 0.037
CACATCGA | 0.0208
GTCCGAGA | 0.0404

Sequence | PBM E-score
AAGGGGAT | -0.0404
ATATTCGC | 0.168
AATAGTCG | -0.0133
GCGAGCCC | -0.28
CGGTAACA | 0.103
CCTAGATA | -0.227
GCCCGTGA | -0.154
AAGAGGCG | -0.0776
AGAGCCAC | -0.214
AAGCACTT | -0.0485
CTGTAGGA | -0.103
CGTGACCA | -0.0216
GCCTAGCC | -0.205
AGCTCATA | 0.177
AGCATTGA | 0.0274
TTCGTAAA | 0.32
AGGGAGCA | -0.338
ACACAACT | 0.021
AGTGCGCG | -0.0114
GTGATCAA | 0.189
ATGTTACC | 0.103
CTAATGAG | -0.138
